From PMC9947773, “Modeling C3 glomerulopathies: C3 convertase regulation on an extracellular matrix surface” (Frontiers in Immunology, 2022)

Experiments:
Details in all cases: both partners purified
C3b [1] = molecular target: T1, C3b (human, UniProt P01024 23-667; P01024 in part); assay: C3 convertase decay assay (C3CDA), elution and western blot for Bb; C3 convertase formed on C3b-coated MaxGel with FB + FD, washed, then decayed in assay buffer with Factor H or a Factor H variant at 37°C
T1 construct: complement C3, human; beta chain of C3b; alpha' chain of C3b (alpha chain without C3a); Coated on MaxGel (ECM) in microtiter wells at 130 ug/ml; also called purified C3b; source: bought: Complement Technology Inc., purified

C3b [2] = molecular target: T1, C3b; assay: C3 convertase decay assay (C3CDA), elution and western blot for Bb; C3 convertase formed on C3b-coated MaxGel with FB + FD alone, washed, left to decay in assay buffer alone at 37°C for set times, washed; half-life from a second order polynomial fit
T1 sequence (P01024 23-667, chain 1 of 2): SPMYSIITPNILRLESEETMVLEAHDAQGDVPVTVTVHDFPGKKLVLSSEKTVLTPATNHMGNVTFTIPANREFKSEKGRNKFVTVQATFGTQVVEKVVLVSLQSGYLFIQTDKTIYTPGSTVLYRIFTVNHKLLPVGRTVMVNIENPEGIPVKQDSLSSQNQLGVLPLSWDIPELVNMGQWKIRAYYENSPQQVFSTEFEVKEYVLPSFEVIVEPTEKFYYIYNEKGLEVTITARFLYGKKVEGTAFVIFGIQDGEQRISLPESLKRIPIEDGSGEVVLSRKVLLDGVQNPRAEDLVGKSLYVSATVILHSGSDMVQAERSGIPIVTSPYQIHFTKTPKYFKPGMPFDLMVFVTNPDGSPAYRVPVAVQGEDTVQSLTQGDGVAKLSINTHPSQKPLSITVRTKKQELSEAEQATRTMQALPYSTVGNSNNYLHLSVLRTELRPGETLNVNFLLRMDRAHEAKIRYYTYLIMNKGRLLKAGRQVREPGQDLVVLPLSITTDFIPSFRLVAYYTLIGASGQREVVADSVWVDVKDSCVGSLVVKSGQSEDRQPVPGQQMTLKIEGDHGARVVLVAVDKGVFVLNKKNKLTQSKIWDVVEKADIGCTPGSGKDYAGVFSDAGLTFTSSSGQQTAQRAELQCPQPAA
T1 sequence (P01024 749-1663, chain 2 of 2): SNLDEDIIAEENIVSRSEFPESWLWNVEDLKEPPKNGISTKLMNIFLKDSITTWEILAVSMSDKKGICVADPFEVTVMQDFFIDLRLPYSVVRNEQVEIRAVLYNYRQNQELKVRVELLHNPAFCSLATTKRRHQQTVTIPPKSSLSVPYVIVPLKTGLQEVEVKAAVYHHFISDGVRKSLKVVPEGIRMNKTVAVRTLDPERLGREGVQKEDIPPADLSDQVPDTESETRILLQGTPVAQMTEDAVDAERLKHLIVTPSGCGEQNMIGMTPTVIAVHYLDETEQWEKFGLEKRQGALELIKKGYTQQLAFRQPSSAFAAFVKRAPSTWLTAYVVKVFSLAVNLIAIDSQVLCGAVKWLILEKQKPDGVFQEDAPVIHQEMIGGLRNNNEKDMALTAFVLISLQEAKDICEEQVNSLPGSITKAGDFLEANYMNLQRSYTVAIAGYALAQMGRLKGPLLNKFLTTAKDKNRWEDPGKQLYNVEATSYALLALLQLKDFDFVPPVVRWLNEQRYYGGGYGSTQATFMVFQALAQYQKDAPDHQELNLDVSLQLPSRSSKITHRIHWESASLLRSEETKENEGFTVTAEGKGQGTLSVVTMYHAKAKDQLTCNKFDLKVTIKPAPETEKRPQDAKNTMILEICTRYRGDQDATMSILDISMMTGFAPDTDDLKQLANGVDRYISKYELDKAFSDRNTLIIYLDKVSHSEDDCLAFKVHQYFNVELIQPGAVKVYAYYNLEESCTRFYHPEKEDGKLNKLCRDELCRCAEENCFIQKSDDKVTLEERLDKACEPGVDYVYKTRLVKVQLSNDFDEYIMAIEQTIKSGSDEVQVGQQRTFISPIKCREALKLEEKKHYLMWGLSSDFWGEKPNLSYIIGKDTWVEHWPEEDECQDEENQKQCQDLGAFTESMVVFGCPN

C3b [3] = molecular target: T1, C3b; assay: C3 convertase formation assay (C3CFA), elution and western blot for Bb; C3b (130 ug/ml) coated on MaxGel in microtiter wells; FB 10.5 ug/ml + FD 0.1 ug/ml alone, 10 min at 37°C in assay buffer (phosphate, 75mM NaCl, 10mM MgCl2, 0.05% Tween20, 2% BSA, pH 7.0); washed x3; eluted with 10mM EDTA, 1% SDS

t1/2 of C3bBb decay with FH (C3b [1]) [min]	t1/2 of C3bBb decay (C3b [2]) [min]	fold C3 convertase formation against CA (WT FB) (C3b [3]) [fold]	binding result (C3b [2])	Binder
6.6	> 10	~1.5	–	Bb fragment of recombinant FB p.Asp279Gly (domain or fragment, human, UniProt P00751 260-764, looked up, complement factor B, human; Bb fragment cut from the recombinant variant by Factor D on C3b; variant in the VWA subunit of Bb; also called D279G; source: Factor B variant from Expi 293 cells, purified from culture supernatant (Ni2+ column); cut by Factor D in the assay; not shown: His-tag, C-terminal, kept) KIVLDPSGSMNIYLVLDGSGSIGASNFTGAKKCLVNLIEKVASYGVKPRYGLVTYATYPKIWVKVSEADSSNADWVTKQLNEINYEDHKLKSGTNTKKALQAVYSMMSWPDDVPPEGWNRTRHVIILMTDGLHNMGGDPITVIDEIRDLLYIGKDRKNPREDYLDVYVFGVGPLVNQVNINALASKKDNEQHVFKVKDMENLEDVFYQMIDESQSLSLCGMVWEHRKGTDYHKQPWQAKISVIRPSKGHESCMGAVVSEYFVLTAAHCFTVDDKEHSIKVSVGGEKRDLEIEVVLFHPNYNINGKKEAGIPEFYDYDVALIKLKNKLKYGQTIRPICLPCTEGTTRALRLPPTTTCQQQKEELLPAQDIKALFVSEEEKKLTRKEVYIKNGDKKGSCERDAQYAPGYDKVKDISEVVTPRFLCTGGVSPYADPNTCRGDSGGPLIVHKRSRFIQVGVISWGVVDVCKNQKRQKQVPAHARDFHINLFQVLPWLKEKLQDEDLGFL
–	–	–	binds	Recombinant Factor B p.Phe286Leu, uncleaved (in C3bB) (natural protein, human, UniProt P00751 26-764, looked up, signal peptide in the construct; complement factor B, human; the DNA coding region was synthesized and the protein purified from the culture supernatant; variant in the VWA subunit of Bb; Found on C3b as uncleaved C3bB; also called FB p.Phe286Leu; source: Expi 293 cells, purified from culture supernatant (Ni2+ column); not shown: His-tag, C-terminal, kept) TPWSLARPQGSCSLEGVEIKGGSFRLLQEGQALEYVCPSGFYPYPVQTRTCRSTGSWSTLKTQDQKTVRKAECRAIHCPRPHDFENGEYWPRSPYYNVSDEISFHCYDGYTLRGSANRTCQVNGRWSGQTAICDNGAGYCSNPGIPIGTRKVGSQYRLEDSVTYHCSRGLTLRGSQRRTCQEGGSWSGTEPSCQDSFMYDTPQEVAEAFLSSLTETIEGVDAEDGHGPGEQQKRKIVLDPSGSMNIYLVLDGSDSIGASNLTGAKKCLVNLIEKVASYGVKPRYGLVTYATYPKIWVKVSEADSSNADWVTKQLNEINYEDHKLKSGTNTKKALQAVYSMMSWPDDVPPEGWNRTRHVIILMTDGLHNMGGDPITVIDEIRDLLYIGKDRKNPREDYLDVYVFGVGPLVNQVNINALASKKDNEQHVFKVKDMENLEDVFYQMIDESQSLSLCGMVWEHRKGTDYHKQPWQAKISVIRPSKGHESCMGAVVSEYFVLTAAHCFTVDDKEHSIKVSVGGEKRDLEIEVVLFHPNYNINGKKEAGIPEFYDYDVALIKLKNKLKYGQTIRPICLPCTEGTTRALRLPPTTTCQQQKEELLPAQDIKALFVSEEEKKLTRKEVYIKNGDKKGSCERDAQYAPGYDKVKDISEVVTPRFLCTGGVSPYADPNTCRGDSGGPLIVHKRSRFIQVGVISWGVVDVCKNQKRQKQVPAHARDFHINLFQVLPWLKEKLQDEDLGFL
